# In PubChem BioAssay AID588855 (National Center for Advancing Translational Sciences (NCATS), 2011):
# Among all 410,000 compounds or so, about 5,000 (1.2%) were called active. This list was built around the results that the source calls inconclusive (neither active nor inactive); the mix of calls is not that of the screen. Calls come from the whole dose curve; as a rule, active = well fitted inhibition curve with a large enough effect; inconclusive = small, poorly fitted or top-dose-only effect; inactive = no such curve, though single readings can be large or run the other way. Where the call is inconclusive, the potency comes from a doubtful curve fit.
# Assay: qHTS for Inhibitors of TGF-b; note: nearly all actives have a fitted effect of over 65% in size
# Settings: HepG2 CAGA-GFP TGF-b/SMAD3 reporter, GFP fluorescence, 18 h, TGF-beta stimulated, 500 pg/mL final; series mostly up to 46.1 µM; activity, negative = inhibition: at the top concentration
# Method in brief: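 HEPG2 CAGA-GFP reporter cells (1000/well, DMEM with 1% FBS) received compounds, then recombinant TGF-beta at 500 pg/mL final for 18 hours at 37 degrees C. Per-cell GFP summed per well was normalised to unstimulated and stimulated DMSO controls before curve fitting.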
# % is set by controls: 0 for no effect and ±100 for the full control effect; potency is the fitted concentration of half-maximal effect; tags give direction and shape of the fitted curve.
SMILES,"activity, negative = inhibition",Potency
COCCCNC(=O)CNC(=S)N(Cc1ccccc1F)C1CCCCC1,inactive: -1.74%,–
O=C1c2ccccc2C(=O)c2c(NCCCN(CCO)CCO)cccc21,–,"inconclusive: 12.6 µM [inhibitor, partial curve, poor fit]"
Cc1cc(Nc2cccc(F)c2)nc(NCc2ccccc2)n1,–,"inconclusive: 15.8 µM [inhibitor, partial curve, poor fit]"
COc1ccc2c(c1)c(CC(=O)NCc1cc([N+](=O)[O-])ccc1O)c(C)n2C(=O)c1ccc(Cl)cc1,–,"inconclusive: 31.6 µM [inhibitor, single point]"
O=C1c2ccccc2S(=O)(=O)N1CCOc1ccccc1,–,"inconclusive: 0.112 µM [inhibitor, full curve, poor fit]"
COc1cccc(CN2c3ccccc3-c3nc(SCC(=O)Nc4cccc(C)c4)ncc3S2(=O)=O)c1,–,"inconclusive: 35.5 µM [inhibitor, single point]"
CC1CCc2c(sc3nnn(CC(=O)Nc4cccc(C(F)(F)F)c4)c(=O)c23)C1 (stereo not drawn),–,"inconclusive: 15.8 µM [inhibitor, single point]"
O=C(O)COc1ccccc1/C=C1\C(=O)Nc2ccc(Br)cc21,inactive: -5.24%,–
CCCOc1nnnn1-c1ccccc1,inactive: -37.1%,–
Cc1cccc2c(=O)n3c(cc12)-c1[nH]c2ccccc2c1CC3,inactive: -29.5%,–
O=C(O)c1cc(Cl)c(Cl)cc1C(=O)N1CCOCC1,inactive: -20.1%,–
COc1ccc(CC(=O)N2CC3(C)CC2CC(C)(C)C3)cc1 (stereo not drawn),–,"inconclusive: 8.91 µM [inhibitor, partial curve, poor fit]"
C/C(=C\C(=S)Nc1ccccc1)Nc1cccc2ccccc12,–,"inconclusive: 35.5 µM [inhibitor, single point]"
Cn1cc(CN2CCCC(C(=O)c3ccc(-c4ccccc4)cc3)C2)cn1 (stereo not drawn),inactive: -5.48%,–
Cc1cc(C)cc(N(CC(=O)Nc2ccc(C(F)(F)F)cc2)S(=O)(=O)c2c(C)[nH]c(=O)[nH]c2=O)c1,–,"inconclusive: 22.4 µM [inhibitor, single point]"
COc1ccc(C(=O)NNC(=O)c2ccc3ccccc3n2)cc1,–,"inconclusive: 17.8 µM [inhibitor, single point]"
CC(=O)OCCCCON1C(=O)c2ccccc2C1=O,–,"inconclusive: 12.6 µM [inhibitor, single point]"
CC1(C)Oc2ccc3ccc(=O)oc3c2/C(=C/Nc2ccc(O)cc2)C1=O,–,"inconclusive: 35.5 µM [inhibitor, single point]"
N#CCC(=O)N/N=C/c1cn(Cc2ccc(Cl)cc2Cl)c2ccccc12,–,"inconclusive: 35.5 µM [inhibitor, single point]"
CCCCNc1c(-c2ccc(OC)c(SC3CCCCC3)c2)nc2cnccn12,–,"inconclusive: 14.1 µM [inhibitor, single point]"
COc1cc(CNCc2ccccn2)ccc1OCC(N)=O,inactive: -21.1%,–
Cc1cccc(NC(=O)c2nc[nH]c2C(=O)N2CCC(C)CC2)c1,–,"inconclusive: 12.6 µM [inhibitor, partial curve, poor fit]"

SMILES,"activity, negative = inhibition",Potency
COc1ccccc1NC(=O)c1ccc(-c2ccc(Br)cc2)o1,–,"inconclusive: 10 µM [inhibitor, partial curve, poor fit]"
Cc1ccc(OCCSc2nc3ccccc3n2CCC(=O)O)cc1C,–,"inconclusive: 3.98 µM [inhibitor, single point]"
O=C(CSc1nc2ccccc2s1)NNC(=O)Nc1ccc(Cl)c(Cl)c1,inactive: -1.41%,–
CCOc1ccc(NC(=O)NC(CC)Cn2nnc3ccccc3c2=O)cc1 (stereo not drawn),–,"inconclusive: 0.1 µM [inhibitor, full curve, poor fit]"
CCCNC(=O)c1c(O)c2c([nH]c1=O)CCCC2,inactive: -14.1%,–
CCOc1ccccc1C(=O)N1CCc2cc(OC)c(OC)cc2C1COc1ccc2c(C)cc(=O)oc2c1 (stereo not drawn),inactive: 1.01%,–
Cn1cc(Cl)c(-c2n[nH]c(=S)n2-c2ccccc2)n1,–,"inconclusive: 25.1 µM [inhibitor, single point]"
O=C(c1ccccc1)N(Cc1nc2ccccc2c(=O)[nH]1)C1CCCCC1,inactive: -13.9%,–
COc1ccc(CNC(=O)c2cnn(-c3ccc(C)cc3)c2C2CCN(C(=O)OC(C)(C)C)CC2)cc1,–,"inconclusive: 35.5 µM [inhibitor, single point]"
Cc1ccc(NC(=S)NCCc2ccc(Cl)cc2)c(C)c1,–,"inconclusive: 35.5 µM [inhibitor, single point]"
O=C(Nc1ccc(Cn2cccn2)cc1)c1ccc(COc2cccc(Br)c2)cc1,–,"inconclusive: 11.2 µM [inhibitor, partial curve]"
COc1ccc(-c2nc(SCC(=O)NC3CCCC3)c(-c3ccccc3)[nH]2)cc1OC,–,"inconclusive: 35.5 µM [inhibitor, single point]"
O=C(Nc1cccc(-c2csc(Nc3cccc(C(F)(F)F)c3)n2)c1)c1ccccc1,–,"inconclusive: 15.8 µM [inhibitor, single point]"
COc1ccc(OC)c(Nc2cc(C(=O)NCc3ccccc3)c3ccccc3n2)c1,–,"inconclusive: 10 µM [inhibitor, partial curve, poor fit]"
N=c1n(CCO)c2ccccc2n1CCOc1ccc(F)cc1,inactive: 20.5%,–
N#Cc1ccc(C(=O)Nc2nc(-c3cccs3)c(C(=O)C(F)(F)F)s2)cc1,–,"inconclusive: 2.24 µM [inhibitor, full curve, poor fit]"
Cc1ncc(CO)c(/C=N/NC(=S)Nc2ccc(F)cc2)c1O,inactive: -14.7%,–
COc1ccccc1NC(=O)CSc1nccc(=O)[nH]1,–,"inconclusive: 5.62 µM [inhibitor, full curve, poor fit]"
Cn1c2ccccc2c(=O)c2ccc(NCc3ccc4c(c3)OCO4)cc21,–,"inconclusive: 14.1 µM [inhibitor, single point]"
COC(=O)CN1C(=O)C(O)(CC(=O)c2ccc(Br)cc2)c2ccccc21 (stereo not drawn),–,"inconclusive: 35.5 µM [inhibitor, single point]"
Cn1c(NCc2ccccc2F)nc2ccccc21,–,"inconclusive: 20 µM [inhibitor, partial curve, poor fit]"
